# Measured values as given in publication PMC4336329 (PLoS ONE, 2015).
# The whole screen tested about 310,000 compounds, of which about 14,000 (4.5%) showed an effect of 50% or more. The effect is printed as a negative number. Some of the results follow.
# Target: human ether-à-go-go-related gene (hERG) potassium channel (human, UniProt Q12809)
# Assay: primary screen, population patch clamp on CHO cells stably expressing hERG
# 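Further: peak tail current of the secondary pulse compared with the same well before compound.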
# Sequence of human ether-à-go-go-related gene (hERG) potassium channel (Q12809 whole entry, looked up): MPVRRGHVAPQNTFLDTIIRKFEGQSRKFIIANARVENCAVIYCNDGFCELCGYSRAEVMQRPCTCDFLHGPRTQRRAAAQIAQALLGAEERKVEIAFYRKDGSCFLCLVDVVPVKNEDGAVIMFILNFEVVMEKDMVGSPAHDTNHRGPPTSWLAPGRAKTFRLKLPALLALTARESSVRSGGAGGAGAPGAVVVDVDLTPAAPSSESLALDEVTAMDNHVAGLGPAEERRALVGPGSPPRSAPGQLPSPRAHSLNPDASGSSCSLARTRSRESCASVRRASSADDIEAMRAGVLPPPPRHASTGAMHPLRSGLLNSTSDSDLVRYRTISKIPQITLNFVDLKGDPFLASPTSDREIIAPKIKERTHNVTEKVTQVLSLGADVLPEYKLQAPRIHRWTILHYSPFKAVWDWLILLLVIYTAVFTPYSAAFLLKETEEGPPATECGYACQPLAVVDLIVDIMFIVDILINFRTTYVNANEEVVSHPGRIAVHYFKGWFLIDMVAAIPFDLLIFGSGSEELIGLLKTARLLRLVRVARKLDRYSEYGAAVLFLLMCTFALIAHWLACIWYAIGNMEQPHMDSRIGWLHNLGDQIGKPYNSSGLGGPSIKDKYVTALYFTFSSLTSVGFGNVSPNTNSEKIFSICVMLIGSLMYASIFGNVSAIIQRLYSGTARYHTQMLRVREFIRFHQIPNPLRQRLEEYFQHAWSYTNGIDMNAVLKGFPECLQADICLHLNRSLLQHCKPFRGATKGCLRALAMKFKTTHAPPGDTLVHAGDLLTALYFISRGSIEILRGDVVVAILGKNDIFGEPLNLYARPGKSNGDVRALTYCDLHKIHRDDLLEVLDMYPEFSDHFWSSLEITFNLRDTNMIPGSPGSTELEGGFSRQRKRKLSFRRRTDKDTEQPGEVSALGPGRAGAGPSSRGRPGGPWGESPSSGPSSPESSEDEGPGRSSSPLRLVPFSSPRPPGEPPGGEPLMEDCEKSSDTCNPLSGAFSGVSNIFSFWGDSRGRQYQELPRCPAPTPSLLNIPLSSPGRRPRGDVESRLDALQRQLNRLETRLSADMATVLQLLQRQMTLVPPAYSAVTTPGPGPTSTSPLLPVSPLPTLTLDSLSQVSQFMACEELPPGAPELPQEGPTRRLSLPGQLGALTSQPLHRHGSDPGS
row,SMILES,"hERG current change (%, negative = inhibition) at 10uM"
1,CCC1(CC)NC(=O)N(CC(=O)Nc2sc3c(c2C(N)=O)CCC3)C1=O,-13.6%
2,COc1ccc(CCNC(=O)CCc2ccc(OC)cc2)cc1,5.42%
3,Cc1ccc(C(=O)Nc2ccccc2C(=O)N2CCOCC2)cc1[N+](=O)[O-],-1.89%
4,O=C1CN(C(=O)NCC(=O)N[C@@H](Cc2ccccc2)C(=O)O)c2ccccc2N1,15.4%
5,CCOc1ccccc1N1CC(C(=O)N(Cc2nnc(-c3ccccc3Cl)o2)C2CC2)CC1=O (stereo not shown),-16.8%
6,COc1ccc(S(=O)(=O)N2CCC(C(=O)N(CC(C)C)C3CCS(=O)(=O)C3)CC2)cc1OC (stereo not shown),9.74%
7,C/C(CC(O)c1ccc2ccccc2n1)=N/O (stereo not shown),-19.7%
8,CCOc1ccc2c(c1)cc(CN(C(=O)CC)C1CCCCC1)c1nnnn12,-42.6%
9,Cn1c(=O)c2c(nc(NCCc3ccccc3)n2Cc2ccc(F)cc2)n(C)c1=O,-7.62%
10,O=C(CCCc1ccccc1)Nc1ccc(Br)cc1F,14.4%
11,CS(=O)(=O)N(CC(=O)N/N=C/c1ccco1)c1ccccc1Br,-3.68%
12,CSc1ccc(C(=O)C2CCCN(Cc3cc4ccccc4[nH]3)C2)cc1 (stereo not shown),-48.8%
13,S=C(N/N=C/c1ccc(Cl)c(Cl)c1)Nc1ccccc1Cl,-15%
14,Cc1ccc(Sc2c(C)[nH]n(C(C)(C)C)c2=O)cc1,-3.51%
15,Cc1cc(N2C(=O)C(O)=C(C(=O)c3cc4ccccc4o3)C2c2ccc(Br)cc2)no1 (stereo not shown),13.3%
16,CCC1(c2ccccc2)NC(=O)N(CC(=O)N2CCN(S(=O)(=O)c3ccccc3)CC2)C1=O (stereo not shown),-0.341%
17,Cc1ccc(Cc2ccc(C(=O)NNC(N)=S)o2)cc1,5.86%
18,C=CCS(=O)(=O)N1CCCC(N(C)CCc2ccc(OC)c(OC)c2)C1 (stereo not shown),-16.1%
19,COCCN(Cc1cc2cc3c(cc2nc1Cl)OCO3)C(=O)Nc1ccc(OC)cc1,14.7%
20,CCOC(=O)NC(=O)c1cn(Nc2ncc(C(F)(F)F)cc2Cl)c(=O)[nH]c1=O,6.5%
21,O=C(CC1S/C(=N\S(=O)(=O)c2ccc(F)cc2)N(c2ccccc2)C1=O)Nc1ccccc1 (stereo not shown),18.8%
22,C=CP(=O)(O)c1ccccc1,17%

row,SMILES,"hERG current change (%, negative = inhibition) at 10uM"
1,CC(=O)Nc1cc[n+](CC(=O)c2ccc(Cl)cc2)cc1.[Br-],15%
2,COC(=O)C(CC(C)C)NC(=O)c1cc(OC)c(OC)c(OC)c1 (stereo not shown),-1.83%
3,COc1ccc(N2C(=O)C3C(C2=O)C2C=CC3C23CC3)c([N+](=O)[O-])c1 (stereo not shown),1.25%
4,Cc1cccc(-c2nnc(SCCOc3ccc4c(C)cc(=O)oc4c3)o2)c1,-9.93%
5,CC(Oc1cccc(Cl)c1)C(=O)Nc1cc(S(=O)(=O)N2CCCCC2)ccc1N1CCOCC1 (stereo not shown),-8.24%
6,CCOC(=O)N1CCC2(CC1)C(C#N)=C(N)Oc1n[nH]c(C)c12,0.62%
7,COc1ccccc1-c1cc(C(=O)Nc2cccnc2Cl)no1,1.69%
8,O=C(Nc1ccccc1OC(=O)N1CCCCC1)N1CCCCC1,12.2%
9,Cc1cccc(N/C=C/c2onc(C)c2[N+](=O)[O-])c1,5.88%
10,COc1cc(Nc2nc(-c3ccccc3)c3cc(C)ccc3n2)cc(OC)c1OC,-5.01%
11,CCN(CC)c1nc(N)n(CCSC(=S)N(C)C)c(=O)n1,-4.98%
12,O=C(O)CCCNc1c(C(=O)Nc2ccc(Cl)cc2)cc([N+](=O)[O-])cc1[N+](=O)[O-],30.7%
13,Fc1ccccc1NC(=S)Nc1cccnc1,10.3%
14,O=C(NC(=S)Nc1cccc(S(=O)(=O)NC2=NCCC2)c1)c1cc(-c2ccco2)nc2ccccc12,6.22%
15,O=C(C1CCC(=O)N(C2CCCC2)C1)N1CCC(Oc2ccccc2Cl)CC1 (stereo not shown),-62.1%
16,Cc1cc(C(=O)CSc2nc3ccccc3[nH]2)c(C)n1CC1CCCO1 (stereo not shown),-12.5%
17,O=C(Cc1ccccc1)N1CCN(Cc2cccc(Br)c2)CC1.O=C(O)C(=O)O,-33.7%
18,O=C(NNS(=O)(=O)c1ccc([N+](=O)[O-])cc1)c1ccncc1,22.1%
19,Cc1ccc(-n2c(SCC(=O)Nc3ccc4c(c3)OCO4)nnc2-c2cccs2)cc1,-21%
20,COC(=O)c1ccc(/C=C2/SC(=S)N(CCCC(=O)Nc3ccccn3)C2=O)cc1,15.4%
21,CCc1sc(C(=O)N2CCN(c3ncccn3)CC2)cc1Br,4.48%
22,N#C/C(=C\c1cn(Cc2ccccc2)c2ccccc12)C(=O)NCc1ccco1,12.5%

row,SMILES,"hERG current change (%, negative = inhibition) at 10uM"
1,Fc1ccc2c(c1)C(c1ccncc1)=NNC(c1ccccc1)=N2,11.1%
2,Cc1cc(C)cc(NC(=S)N2CCN(c3ncccn3)CC2)c1,13%
3,O=C(c1ccccc1Br)N1CCN(c2ccccn2)CC1,9.41%
4,CCn1nnnc1SCC(=O)N(C)C1CCS(=O)(=O)C1 (stereo not shown),1.37%
5,COc1ccc(-c2cc(=NC(CC(C)C)C(=O)O)c3cc(C)ccc3o2)cc1 (stereo not shown),-56.5%
6,CC(=O)c1ccc(Oc2ncnc3sccc23)cc1,19.5%
7,COc1ccc(C[C@H]2CN3C(=NC[C@@H]3Cc3ccc(O)cc3)N2C[C@H](C)NC(=O)c2ccc(C)c(Br)c2)cc1,-77.9%
8,COc1ccc(-n2c(C)nc3c(cnn3-c3ccccc3)c2=O)cc1,-6.78%
9,COc1cc(C(=O)OCC(=O)N2CCC(Cc3ccccc3)CC2)cc(OC)c1OC,-16.9%
10,CCOc1ccc(C(=O)Nc2ccc3c(c2)C(=O)NC3=O)cc1,13.2%
11,O=C(COc1ccccc1)NCCSCc1ccccc1Cl,-13.1%
12,CN1CCN(C(=O)c2cnn3c(C(F)F)cc(C4CC4)nc23)CC1,-9%
13,Cc1ccc(Cn2c(CN3CCOCC3)nc3c2c(=O)n(C)c(=O)n3C)cc1,-20.6%
14,C=CCC(NCCCO)c1cccc(OC)c1OC.Cl (stereo not shown),6.88%
15,COc1cccc(CN2C(=O)CCC2(C)C(=O)NCCc2ccc(OC)c(OC)c2)c1 (stereo not shown),2.19%
16,COc1ccc(C(=O)NCC(=O)N/N=C/c2cccnc2)cc1OC,15.2%
17,C=CCOc1ccccc1/C=N/NC(=O)Cc1ccccc1,11.8%
18,CCc1sc(N)nc1-c1ccccc1,2.5%
19,S=C(NCCc1ccccc1)Nc1ccc(Nc2ccccc2)cc1,26.5%
20,CCOC(=O)COc1ccc(N)cc1CC(NC(C)=O)(C(=O)OCC)C(=O)OCC,-72.7%
21,Fc1cc(F)cc(NC(=S)NN2CCOCC2)c1,1.56%
22,CCc1cccc(C)c1NC(=O)c1cccnc1,5.55%

row,SMILES,"hERG current change (%, negative = inhibition) at 10uM"
1,CCOC(=O)Cn1c(-c2ccccn2)nc2ccccc21,-1.69%
2,Cc1ccnc(SCC(=O)c2ccc(Br)cc2)c1C#N,-3.39%
3,N#Cc1c(-c2ccccc2)nc(-c2ccccc2)[nH]c1=O,13.4%
4,O=c1[nH]c(COc2ccccc2)nc2ccccc12,17.7%
5,CCC(CC)C(=O)c1c[nH]c(C(=O)O)c1,19.6%
6,CC(C)=CCOc1ccc2ccc(=O)oc2c1,-12.9%
7,COc1ccc(C(CNC(=O)c2oc3cc(C)c(Cl)cc3c2C)N2CCCCC2)cc1 (stereo not shown),16.3%
8,CCN(CC)CCCN(Cc1cc2cc3c(cc2[nH]c1=O)OCO3)C(=S)NCCCN(C)C,2.52%
9,CCCn1c(N)c(N(CCOC)C(=O)c2cc(Cl)nc3ccccc23)c(=O)[nH]c1=O,35.1%
10,CC(NS(=O)(=O)c1ccc(Cl)cc1)C(=O)Nc1ccc2c(c1)OCCO2 (stereo not shown),-19.4%
11,CN(C)S(=O)(=O)c1cc(NC(=O)C[N+]23CCN(CC2)CC3)ccc1Cl.[Cl-],14.1%
12,COc1ccccc1/C=C/C(=O)OCCCN(C)C.Cl,-3.33%
13,CSCCC(NC(=O)c1ccoc1C)C(=O)O (stereo not shown),-2.73%
14,O=C(NC1CCCCC1)C(c1cccs1)N(C(=O)c1ccccn1)c1ccccc1 (stereo not shown),-0.682%
15,COc1cc(C2C(C#N)=C(N)Oc3cc(N(C)C)ccc32)cc2c1OCO2 (stereo not shown),-6.32%
16,CSCCC(NS(=O)(=O)c1ccccc1F)C(=O)NCc1cccnc1 (stereo not shown),13.7%
17,CCOc1ccc(Cl)cc1S(=O)(=O)N1CCN(c2ccc(F)cc2)CC1,-32.9%
18,CN(Cc1cn(-c2ccccc2)nc1-c1ccc(F)cc1)C(=O)CCC(=O)O,28%
19,FC(F)(F)c1ccc(Oc2ccc3c(C(F)(F)F)cc(C(F)(F)F)nc3n2)cc1,11.7%
20,COc1ccc(CCNC(=O)C2CC=CCC2C(=O)O)cc1 (stereo not shown),12.4%
21,CCCCC(=O)Nc1c2c(nn1-c1ccc([N+](=O)[O-])cc1)CS(=O)(=O)C2,-27.9%
22,CCCCN(C)C(=O)C1CCN(c2ccc(S(=O)(=O)N3CCOCC3)cc2[N+](=O)[O-])CC1,-53.9%
